Data on 84 molecules can be found in ChEMBL document CHEMBL1201862, “PubChem BioAssay data set” (2004).

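A five-concentration, 48-hour dose response in 96-well plates underlies each endpoint, interpolated linearly between surrounding concentrations. Here, GI50 denotes the concentration required for 50% inhibition of growth.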 Activity calls are given as the source filed them. Cut-off read from the data, not from the text of the source: active = GI50 up to about 1.1 µM and inactive = higher.

This assay relates to NCI-H322M. Briefly: NCI-60 cell line screen, 48 h.
As to `CC(=O)Oc1ccc2c(C)cc(=O)oc2c1`, the GI50 is inactive: > 100 µM.
For `Clc1ccc(-c2cn3c(nc4ccccc43)c(-c3ccccc3)n2)cc1` the value was inactive: 22.2 µM.
The figure for `NCCP(=O)(O)O` is inactive: > 100 µM.
For `CN(C)c1ncnc2c1ncn2CCn1cnc2c(N(C)C)ncnc21`, the GI50 was inactive: > 100 µM.
For `N#CC(c1ccc(Cl)cc1)c1cccc(Cl)n1` (centres undefined) the value was inactive: 99.3 µM; for `COc1ccc(CSC2=C(C#N)C(=O)NC3(CCCCC3)S2)cc1`, inactive: 56.8 µM.
For `O=C(CCc1cc(O)cc(O)c1)NCCCNC(=O)CCc1cc(O)cc(O)c1` the value was inactive: > 100 µM.
For `CC(CC(C#N)(c1ccccc1)c1ccccc1)N1CCCCC1` (centres undefined) the value was inactive: 34.1 µM.
On to `CCN(CC)CCNc1nc(N)c(C#N)c(C#N)c1C#N`, for which the GI50 is inactive: > 10 µM.
For `CCOC(=O)/C(=C/c1ccc(N(C)C)cc1)N(CC)CC` the value was inactive: > 100 µM; for `Fc1ccc(OCc2nc3cc(C(F)(F)F)ccc3nc2-c2ccccc2)cc1`, inactive: > 100 µM; for `Cn1c(-c2ccccc2)cc(-c2cccs2)c1-c1cccs1`, inactive: > 100 µM.
As for `Cc1ccc(S(=O)(=O)Nc2ccccc2C(C)(C)C)cc1`, the GI50 was inactive: 23 µM.
For `CCOC(=O)c1c(-c2ccc(OC)c(O)c2)c(C#N)c(=S)n(C2OC(COC(C)=O)C(OC(C)=O)C(OC(C)=O)C2OC(C)=O)c1-c1ccccc1` (centres undefined) the value was inactive: > 100 µM.
`COc1cc(Br)cc2c1O[C@H]1C(=O)CC3CC21CCN3C` (some centres undefined): the GI50 is inactive: > 100 µM.
For `N#CN1CCC=C(c2cc3ccccc3[nH]2)C1` the value was inactive: 232 µM; for `CCOC(=O)C(C)(C)Oc1ccc2c(-c3ccccc3)cc(=O)oc2c1`, inactive: > 100 µM; for `CC(C)OP(=O)(OC(C)C)/C(=N/Nc1ccc([N+](=O)[O-])cc1)Nc1ccc(N/C(=N\Nc2ccc([N+](=O)[O-])cc2)P(=O)(OC(C)C)OC(C)C)cc1`, inactive: > 100 µM.
For `O=C(CSc1nnc(Cc2ccccc2)o1)Nc1ccc([N+](=O)[O-])cc1` the value was inactive: > 100 µM; for `C=CC(=O)N1C/C(=C\c2ccc(N(C)C)cc2)C(=O)/C(=C/c2ccc(N(C)C)cc2)C1`, inactive: 98.4 µM.
The figure for `COc1nc(N)c(C(=O)CCl)c(=O)n1C` is inactive: 16.7 µM; for `CC(=O)C1(/N=N/c2ccc(S(N)(=O)=O)cc2)CCOC1=O` (centres undefined) it is inactive: > 100 µM; for `CCCC(=O)OCC1OC(n2cc(F)c(=O)[nH]c2=O)CC1OC(=O)CCC` (centres undefined) it is inactive: 2.33 µM.
`CN(C)c1nc(Oc2nc(N(C)C)nc(N(C)C)n2)nc(N(C)C)n1`: the GI50 is inactive: > 100 µM.
As for `COC(=O)c1c([N+](=O)[O-])ncn1[C@H]1OC[C@@H](OC(C)=O)[C@@H](OC(C)=O)[C@@H]1OC(C)=O`, the GI50 is inactive: > 100 µM.
For `CN(Cc1ccccc1)c1nc(=[N+](C)C)ss1` the value was inactive: 63.5 µM; for `C=CC/C=C/Cc1csc(C(C)(C)C(O)C/C=C/C(=C)CCNC(=O)OC)n1` (centres undefined), inactive: > 14.6 µM.
For `O=C(O)CCCc1ccc2c(c1)CC1(C2)Cc2cc3c(cc2C1)CCCC3` the value was inactive: 33 µM.
For `C=C(Cl)COC(=O)Nc1cccc(Cl)c1` the value was inactive: 87.7 µM.
As for `CCOC(=O)C(NC(=O)CC(C)C)(N1CCN(c2cc3c(cc2F)c(=O)c(C(=O)O)cn3C2CC2)CC1)C(F)(F)F` (centres undefined), the GI50 is inactive: 34.8 µM.
For `O=C(NO)c1ccc(C(=O)NO)cc1` the value was inactive: 38.2 µM; for `C=C1C(=O)O[C@H]2C/C(C)=C/CC[C@]3(C)CCC[C@](C)(CC[C@@H]12)O3`, inactive: > 50 µM.
For the molecule `COc1cc2c(cc1OC)CC(=O)c1cc(OC)c(OC)cc1/C=C\2`, the GI50 was inactive: > 12.5 µM.
The figure for `O=C1C/C(=C\O)C(=O)c2ccccc2N1` is inactive: > 100 µM; for `CC1(C)CC23CC(C)(C)c4cccc(c42)OCc2ccc4ccc5ccc(nc5c4n2)COc2cccc1c23` it is inactive: > 50 µM.
The figure for `N=C(N)n1ncc(Cl)c(Cl)c1=O` is inactive: 12.4 µM.
Consider `C/C(=N\Nc1nc2ccccc2s1)c1cc2ccccc2cn1`, for which the GI50 is inactive: 5.51 µM.
On to `COc1ccccc1C1C2=C(COC2=O)OC(C)(C)Oc2cc3c(cc21)OCO3` (centres undefined), for which the GI50 was inactive: 4.35 µM.
For `CCCCCCCCCCCc1c(O)c(=O)c2c(oc3c(=O)c(CCCCCCCCCCC)c(O)c(=O)c3n2-c2ccc(N(C)C)cc2)c1=O` the value was inactive: 31.7 µM; for `COC(=O)c1cc(=O)nc2cc3cccccc3n12`, inactive: > 100 µM; for `CN(C)C1=NC2=S(SC(Nc3ccccc3)=N2)S1` (centres undefined), inactive: 43.6 µM.
For the molecule `Cn1c(=O)nc2n(-c3ccc(Cl)cc3)c(-c3ccccc3)c(-c3ccccc3)nc-2c1=O`, the GI50 is inactive: 32.3 µM.
For `Nc1ccc(Oc2ccc(C34CC5CC6C3CC3CC4C(C5)C6(c4ccc(Oc5ccc(N)c(O)c5)cc4)C3)cc2)cc1O` the value was inactive: 3.46 µM; for `CCOC(=O)C(CS)NC(=O)CCCCCCCC(=O)NC(CS)C(=O)OCC` (centres undefined), inactive: > 100 µM.
In the case of `CCOC(=O)C1(C#N)C(C#N)(C#N)C1(C#N)C#N`, the GI50 was inactive: > 100 µM.
For `O=C(O)CCCCCCC[C@@H]1S[C@H]1CCCCCCO` the value was inactive: > 100 µM; for `CSC1=C(C#N)C(=O)N(c2ccc(C)cc2)C(=S)C1C#N` (centres undefined), inactive: > 100 µM; for `CC1=C(CO)C(=O)O[C@@H]([C@@H](CO)[C@H]2CCC3C4C[C@@H](O)[C@@]5(O)CC=CC(=O)[C@]5(C)C4CC[C@@]32C)C1` (some centres undefined), inactive: > 100 µM.
On to `O=C(/C=C/c1ccccc1F)c1ccc(Cl)c(Cl)c1`, for which the GI50 is inactive: > 91 µM.
For `O=C(/C=C/c1ccc(Br)cc1)c1ccc(NCc2nc3ccccc3[nH]2)cc1`, the GI50 was inactive: 16.6 µM.
For `COC(=O)C(CCCN1C(=O)c2ccccc2C1=O)C(=O)OC` the value was inactive: > 100 µM; for `COC(=O)[C@@](C)(COC(=O)C(C)(C)C)NC(=O)OC(C)(C)C`, inactive: > 100 µM.
For the molecule `COc1cccc(CCN2CCN(CCCc3ccccc3)CC2)c1`, the GI50 was inactive: > 100 µM.
The figure for `CC1=CC(=O)CC(C)(C)C1/C=C/C(C)=C/C=C/C(C)=C/C=C/C=C(C)/C=C/C=C(C)/C=C/C1=C(C)CC(O)CC1(C)C` (centres undefined) is inactive: > 100 µM; for `Cc1sc(C)c2c1C(=O)CC2N` (centres undefined) it is inactive: 70.8 µM.
The figure for `O=Cc1ccc(OC[C@H]2COC(=O)N2)cc1` is inactive: > 100 µM; for `COc1cc(C2c3cc4c(cc3OC(NN)C2C)OCO4)cc(OC)c1OC` (centres undefined) it is active: 0.394 µM; for `Clc1ccc(OCc2nnc(CCCCCCCCc3nnc(COc4ccc(Cl)cc4Cl)o3)o2)c(Cl)c1` it is inactive: > 100 µM.
As for `COC1O[C@@H]2CCN3C(=O)[C@@H](OC(=O)c4ccc([N+](=O)[O-])cc4)[C@H]1C23` (some centres undefined), the GI50 is inactive: > 100 µM.
For `NC1CC(=O)c2c1sc(Cl)c2Cl` (centres undefined) the value was inactive: > 100 µM.
On to `CC1(C#N)CC(C)(C)C(/C=C2/CC(C)(C)C(/C=C3/OC(=N)CC3(C)C)=N2)=N1` (centres undefined), for which the GI50 is inactive: 40.6 µM.
For `O=C(COc1ccc(Br)cc1Br)N1N=C(c2ccc([N+](=O)[O-])o2)CC1(O)c1ccccc1` (centres undefined) the value was inactive: 14.2 µM; for `COC(=O)[C@H](Cc1ccccc1)NC(=O)N1CCN(C(=O)N[C@@H](Cc2ccccc2)C(=O)OC)CCN(C(=O)N[C@@H](Cc2ccccc2)C(=O)OC)CC1`, inactive: > 100 µM.
The figure for `CC(NNC(=O)c1ccncc1)c1cccc(C(F)(F)F)c1` (centres undefined) is inactive: > 100 µM.
For `COC(=O)CCc1ccc2c(c1)CC1(Cc3ccccc3C1)C2` the value was inactive: > 100 µM; for `CC1CC(c2ccc([N+](=O)[O-])cc2)=Nc2ccccc2[S+]1[O-]` (centres undefined), inactive: 35.7 µM; for `Nc1c(-c2nc3ccccc3[nH]2)sc(=S)n1-c1ccccc1`, inactive: > 100 µM.
Turning to `CCCC[S+]([O-])CCC(N)C(=O)O` (centres undefined), the GI50 was inactive: > 100 µM.
For `CC(=O)c1c2n(n(-c3ccccc3)c1=O)C(=O)c1nccnc1-2` the value was inactive: > 100 µM.
The figure for `O=C(O)CCc1nc2c(n1Cc1ccccc1)C(=O)c1ccccc1C2=O` is inactive: 61.9 µM; for `O=C(CC1C(=O)Nc2ccccc2[S+]1[O-])Nc1cc(Cl)ccc1Cl` (centres undefined) it is inactive: > 100 µM.
For `C/C(CC(=O)Nc1cccc([N+](=O)[O-])c1)=N\NC(=O)C[n+]1ccccc1` the value was inactive: > 100 µM; for `CN1N=CSC12C(=O)N(c1ccccc1)C(=O)N2c1ccccc1` (centres undefined), inactive: > 100 µM.
As for `COC1(CCO)CC=CCC1(CCO)OC` (centres undefined), the GI50 is inactive: > 100 µM.
The figure for `Brc1ccc(-c2cc3c(cc2C2SCCS2)OCO3)cc1` is inactive: 44.9 µM.
The figure for `C[C@H]1CC(=O)C2=CCCC3(SCCCS3)[C@@H]2[C@H]1CO` is inactive: > 100 µM.
For the molecule `CN1CNc2nc(N)n(C)c(=O)c2C1`, the GI50 was inactive: > 10 µM.
The figure for `CN(CCN1C(=O)c2cc([N+](=O)[O-])cc3cc([N+](=O)[O-])cc(c23)C1=O)CCN1C(=O)c2cc([N+](=O)[O-])cc3cc([N+](=O)[O-])cc(c23)C1=O` is inactive: 3.27 µM.
For `CCCC(OCC)(OCC)OCC` the value was inactive: > 100 µM; for `COc1ccc(/C=C/[N+](=O)[O-])cc1`, inactive: 17.4 µM; for `[N-]=[N+]=NC1C(Cl)C(=O)NC(=O)N1[C@H]1C[C@H](O)[C@@H](CO)O1` (some centres undefined), inactive: > 100 µM.
Turning to `O=C(NCCc1ccccc1)c1cc(/C=C/c2cc(O)ccc2O)ccc1O`, the GI50 is inactive: 12.9 µM.
The figure for `Cc1nnc2sc(-c3ccc(N)cc3)nn12` is inactive: > 100 µM; for `Nc1ccc2c(c1)Cc1ccccc1-2` it is inactive: > 100 µM.
